# From the supplement of paper PMC12632987
# Whole data set: some 1,800 sequences, median “median log2 fold change of GCK-ALFA target abundance (FLAG IP / Myc IP barcode read proportion)” near 0.14, cut for the lowest 2% near -0.84. The list shows a part of the results.
# T1: TRAF2, Q12933
# T1 chain: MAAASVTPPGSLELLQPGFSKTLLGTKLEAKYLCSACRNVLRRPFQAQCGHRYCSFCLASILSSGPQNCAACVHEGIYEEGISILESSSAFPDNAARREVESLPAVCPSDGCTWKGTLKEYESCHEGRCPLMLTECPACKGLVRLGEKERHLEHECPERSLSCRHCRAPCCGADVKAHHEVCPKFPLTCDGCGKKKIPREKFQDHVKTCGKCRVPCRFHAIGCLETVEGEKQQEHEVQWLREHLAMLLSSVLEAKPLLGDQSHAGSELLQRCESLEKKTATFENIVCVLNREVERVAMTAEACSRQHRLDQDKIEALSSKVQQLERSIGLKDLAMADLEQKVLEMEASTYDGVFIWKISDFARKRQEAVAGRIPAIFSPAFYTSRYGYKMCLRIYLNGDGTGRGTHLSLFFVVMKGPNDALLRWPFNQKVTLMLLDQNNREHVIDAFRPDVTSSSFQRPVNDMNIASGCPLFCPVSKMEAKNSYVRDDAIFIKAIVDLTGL
# B1: traf2_out_15_48_1369 (protein)
# chain: DAEAYRKAMNEAADAIIATKDAVAARVEALAATASPEVAAALDAVVALIRAGAGSQDVIAALNAAAATASPEVAAQLNALAADLKAARAAASKTAAEMAK
# B2: traf2_out_13_95_1193 (protein)
# chain: EEEKREKYKKLTNEIADELLDHADKLIDEITKATGDPALGAELRRVLDRYGVSAAIHYIREQAEKNPEYKELYLKAAEELEAKRREAGKKVAEKEKEIEA
# B3: traf2_out_20_3_2242 (protein)
# chain: SELEKQLKEEFEKLEKLIKELEPLLPKEDAEKIKKLLEEAKEAYKTDKSDALVKLSELKRLLLELAEKKRAAGDEETAKKLEEAADEVNRAMQLVYKIIQ
# B4: traf2_out_1_27_987 (protein)
# chain: SEEEFTALVKEASEKIAKASTEEAIKIAKETLREIHERGDPSIGLAAVTLVTSVKTKEDAEKLIEAIEETLRELGVSEEEIERIRRQMLTAVELLFKALA
# B5: traf2_out_20_3_2187 (protein)
# chain: SELEEELEKKLEEALKLIKEAAKLADPETAKELKELAKELKKSRELSYEDQLVKLSEIRRKLLELAEKAKAEGKEELAAKLEEAAEALNKAMNLVYKIIE
# B6: traf2_out_18_117_1806 (protein)
# chain: SEIEEARKEFEEALEEFEEELREAERVAGQLIERHPHALPEEATEAIVRFGELKRRARLLALEAEENRNNLEKLKEIVEELRRLTEEMREVRERLKELLA
# B7: traf2_out_11_155_728 (protein)
# chain: EAKRKAQNEIVDKNLEIGDELLAVVEAIIARVAARDPAVAAELRAVVARHLRFSHRSAARAAIDLLERRGLAEEAAELAAALEEAQRKASRFIKEVEEKL
# B8: traf2_out_11_155_757 (protein)
# chain: SKLREMANKINDIAMKIADEIDKKIEEMIKRIEKEDPAAAKKLRAALAAHKDASARSKALIAAQVLKEEGFEEEAEELLKFLEEKQKKLNEEVKKIEEEA
# B9: traf2_out_5_63_2362 (protein)
# chain: SERERLTELAREADRLVQELLAAAKAGDEEEVEALIEEAVADPELARLVLGILKGEAKYYKLLGDKPEEAAIAEELAKRLEAAMAAREAAAAAAAAAAAA
# B10: traf2_out_17_178_1726 (protein)
# chain: SKEEILKKISELADERLDVNKEAMEKLRAIAEKEGVLTPELKARLDAVSKNSNLYALEEVANELIARSSSKEEIQKLLDETSKKLRELNKKIQEAVEKLE
# B11: traf2_out_9_166_2602 (protein)
# chain: NTDKYYEVLKKHSRKIGEHAQAALRELERVGAPEELLAEVSEALNRLLTHMLYSDEVLEELERLAKRLAERPELREVARHLEEALEEAKKAREEVKKLNE
# B12: traf2_out_20_3_2254 (protein)
# chain: EELLRKAREELERARRLLEELEPHLDPETAAALREALEAAERALETDYSDALVEASRARRLALAAAEEARAAGREEVAARLEALADEMQRAKYYLYKIIE
# B13: traf2_out_9_108_2595 (protein)
# chain: MTEEEKEEETYEKILKLAKDFLERYDVSEELRADMEAAIEQAEKLRKEGEKRTANILIAISTARVAYEIGEEAVKDFLAELKKIDERSYNAAKRMVKLLK
# B14: traf2_out_3_89_2281 (protein)
# chain: EEERKKKIEEARKNIKTWIKGLEKSTKRVAEEMLKEGYSLETIKGLIDSSATALLEAFRISLKDEGFDEETIEELVKEAEEELKKIVAKLKEEAEKAYKE
# B15: traf2_out_17_178_1703 (protein)
# chain: SKEEARKEISEATDEMIDLAREAAARLLEIARREGDLSPEELAALERARRLGSARTTLALMDRAIPRLRSAAEVAALRDDFRARYAELAKKIAEALEKYE
# B16: traf2_out_17_162_1496 (protein)
# chain: AAAEARFAELQARLEELEKRLKELKAKLPNLPKMSKEELTDLLVEASELKREARELAEELRELAEETGSPEAEAALERAEALAEELQKIANEIYKELEAK
# B17: traf2_out_6_156_2374 (protein)
# chain: TAEEILREAEKEIKELIKELAKASEEKKIAYISRIAGAVYRALQRLREAGASVEELREAVERLREVAKKEAEKAGLPEDVKNLLLASINAVGEVALREAE
# B18: traf2_out_8_144_2538 (protein)
# chain: HMTKRELANELANILVELDELIELADEETKKVLIEARRHVGQALNLVVFGGPKEEILKEIEKAIEKLKEAIKLVKDNPELKKKLEEALEKLKEILKNVKE
# B19: traf2_out_6_3_2530 (protein)
# chain: SKESLRRDARTLLENMGITTAEQLLAFVRAEVNAVRKLVSRKDVDQADLAGARAVATLIEAVVEVAAEELPDFTPEQVAEALALIEEARKFIEEKEKELK
# B20: traf2_out_16_177_1450 (protein)
# chain: EREKISDRLVILSELRRAALLAVAGSGEEYREHLERAREEAEEAGDEEALERAEEIEALIAADTPEARAELEALARELQREAGKLANEFEKLIKEEAEKE
# B21: traf2_out_6_156_2389 (protein)
# chain: KLEEILKKTKEELEKLIEELSKASEEKKIFYFNKIAGVVYRALQQMRDAGASLEELKAFSEEVLEHAKKEADKYGLSEDTKNLLISSLNAVFDVALEAAK
# B22: traf2_out_20_3_2196 (protein)
# chain: SELEKQLKEELEKAIELLKEAAKLADEETAKKLEELIKRIKASESLSYSDRLVVLSEVRREVLKLAEEARAAGKEELAKVLEEAAEALNRAMNLLMKIIE
# B23: traf2_out_6_156_2443 (protein)
# chain: MLEEIKEKTEKEIKEEVKKLAESSPEKHIIHINKIAGAVYRGLLEARKAGASLEEIKEFVEELKKVLEEEANKYGLDESTKNLLLSSFNAVAQVALEEAK
# B24: traf2_out_13_95_1125 (protein)
# chain: SKELAEKIMEIADEMEEKVLKILEELLKIAKKKGIAEKEVQAILDFAKHGTINEVIHRLKELAEKYPELKEEFEAAIEKLEEIRREAGKKVAELIKEEEE
# B25: traf2_out_17_162_1608 (protein)
# chain: MELEEKLKKLKELLEELEKKLKRLEEKLKNIEKLSKEELSDLLVEASEARRKALEALEEIKKLKEKLDKEEYEKLSKRFEEIAEKFQRIANKFYKELEKK
# B26: traf2_out_6_166_2464 (protein)
# chain: EEELLEEIRRIAKELGKYPAEVVIEAFERVAAELTDESARLARQLASGVRQGQKAGLPVETVVTAYADGMIALGVPVERILELLRRVLERAKELAAEREA
# B27: traf2_out_15_48_1371 (protein)
# chain: SVEELHAAASKVADRFDEQIDKILKELEKLAKETKDPRVEELLKKAKEAAKKYGLTGVIHVMREALPELSPEVAAKVKELIAEAEKVRKEAGKEMAKVLK
# B28: traf2_out_15_17_1305 (protein)
# chain: KISPEDGRKLTDLAIKAKEEAKKLVEEVLKELEKKGLLTPEQRERLNFLINNPGISLHTIRDEVEKILKEVGEEELLKEAKEKLDALIKEVNDKANEMLK
# B29: traf2_out_11_155_714 (protein)
# chain: EEKLKLNQELVDEVSAIADEAEARLEALIAEVEAEDPAVAAELRAVLAAHADAGVTTKLLLAARVLEAAGRAEEAARVRAILAEYQKKANELYKEYEKKL
# Target: T1, TRAF2, Q12933
# Test: median log2 fold change of GCK-ALFA target abundance (FLAG IP / Myc IP barcode read proportion) (log2 ratio); each designed protein is fused to an ALFA-tag nanobody in HEK293 cells to bring the named protein to FLAG-tagged glucokinase (GCK); Myc marks an untargeted standard; higher = target protein stabilised (more abundant)
# Conditions: target protein: 3xFLAG-MCP-GCK-ALFA reporter; HEK293 landing pad (RPLP)
# Procedure, shortened: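 Binders fused to an ALFA nanobody were recombined as a library into HEK293 landing-pad cells, which were induced with 2 μg mL^−1 doxycycline and then transfected to express a FLAG-tagged target and a Myc-tagged standard. After 48 h, circular RNA barcodes recovered by anti-FLAG and anti-Myc immunoprecipitation of lysates were reverse transcribed, amplified and sequenced. Each binder's target abundance is the median log2 ratio of FLAG to Myc barcode read proportions, from barcodes present at ≥10^−7 in both replicates, binders carrying ≥3 barcodes per replicate, a 10^−6 pseudocount and pooled replicates.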
row,Binder,median log2 fold change
1,B1,0.341
2,B2,0.187
3,B3,0.299
4,B4,0.203
5,B5,0.101
6,B6,0.144
7,B7,0.215
8,B8,-0.0345
9,B9,-0.402
10,B10,0.0326
11,B11,0.0726
12,B12,0.298
13,B13,-0.632
14,B14,-0.253
15,B15,-0.228
16,B16,0.252
17,B17,-0.0257
18,B18,0.112
19,B19,-0.811
20,B20,0.121
21,B21,0.203
22,B22,-0.0875
23,B23,0.214
24,B24,-0.644
25,B25,-0.073
26,B26,0.0466
27,B27,0.233
28,B28,0.373
29,B29,0.256
